This is an account of results in ChEMBL document CHEMBL1201862, “PubChem BioAssay data set” (2004).

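Following 48 hours of exposure in 96-well plates, responses at five concentrations were used to interpolate endpoints linearly. At the GI50, growth is halved.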 The source made the active and inactive calls. Cut-off read from the data, not from the text of the source: active = GI50 up to about 1.1 µM and inactive = higher. Where only a bound is given, the exact number is not on record here.

This experiment has as its system NCI-H322M. In words: NCI tumour cell line growth inhibition, 48 h.
In the case of `O=S(=O)(c1cnccc1N1CCN(CCO)CC1)N1CCCC1`, the GI50 was inactive: > 100 µM.

With `N=C1c2ccccc2C(=O)c2c(NCCNCCO)ccc(O)c21`, the GI50 was inactive: 4.34 µM.

`COC(=O)C(=O)C(C(=O)C(=O)Nc1ccccc1C(C)=O)c1nc2ccc(C(=O)c3ccccc3)cc2nc1O` (stereo not drawn): the GI50 was inactive: > 100 µM.

In the case of `Cn1c(CC(O)c2nc3ccccc3n2C)nc2ccccc21` (stereo not drawn), the GI50 is inactive: > 36.8 µM.

As to `Cc1ccc(C2=NO[C@@H]3C(=O)N(c4ccc(Cc5ccc(N6C(=O)[C@H]7C(c8ccc(C)cc8)=NO[C@H]7C6=O)cc5)cc4)C(=O)[C@H]23)cc1`, the GI50 was inactive: > 100 µM.

Turning to `CC1CNC(c2cccc(-c3nc(-c4cccc(C5=NC(C)CN5)c4)nc(N(C)C)n3)c2)=N1` (stereo not drawn), the GI50 is active: 0.719 µM.

`CN(C)CCNc1ccc([N+](=O)[O-])c2nc3ccccc3c(N)c12`: the GI50 is active: 0.698 µM.

In the case of `O=C(Nc1cccc(O)c1)C(=O)C(C(=O)c1ccccc1F)C1OC(=O)c2ccccc21` (stereo not drawn), the GI50 was inactive: 15.8 µM.

With `O=C(CCOS(=O)(=O)CF)N1CCN(C(=O)CCOS(=O)(=O)CF)CC1`, the GI50 is inactive: > 100 µM.

On to `Cc1cc(C)c2c(=O)n(CC(O)CN3CCN(c4ncccn4)CC3)sc2n1` (stereo not drawn), for which the GI50 is inactive: 16.6 µM.

As for `Cc1cc2c(=O)c3ccc(Cl)cc3[nH]c2c(C(N)=O)c1C`, the GI50 is inactive: > 100 µM.

With `COc1cc(-c2cc(=O)c3c(O)c(CC=C(C)C)c(O)cc3o2)ccc1O`, the GI50 is inactive: 40.7 µM.

Take `CC(=O)N1c2ccccc2C(C)(C)OC1C(Cl)(Cl)Cl` (stereo not drawn): the GI50 is inactive: 53.7 µM.

As for `Cc1ccccc1NC(=O)C(=O)C(c1cnc2ccc([N+](=O)[O-])cc2n1)[N+](=O)[O-]` (stereo not drawn), the GI50 is inactive: > 100 µM.

Take `O=c1[nH]cc(NCCCl)c(=O)[nH]1`: the GI50 was inactive: > 100 µM.

On to `CCCCC1Cc2cc(OC)ccc2-c2n1c1cc(OC)ccc1[n+]2C.CCCCC1Cc2cc(OC)ccc2-c2n1c1ccc(OC)cc1[n+]2C` (stereo not drawn), for which the GI50 was inactive: 11.7 µM.

On to `CC(C)(C(=O)NN)c1ccccc1`, for which the GI50 was inactive: > 100 µM.

In the case of `COc1ccc(C[C@H](N)C(=O)NC2C(CO)OC(n3cnc4c(N(C)C)ncnc43)C2O)cc1` (stereo partly drawn), the GI50 was active: 0.467 µM.

For the compound `c1cc2cc(c1)CN1CCNCCN(CCNCC1)Cc1cccc(c1)CN1CCNCCN(CCNCC1)C2`, the GI50 is inactive: > 100 µM.

On to `CCCCCCc1cc2c(C)c(C)c(=O)oc2cc1OCCCOc1cc2oc(=O)c(C)c(C)c2cc1CCCCCC`, for which the GI50 is inactive: > 100 µM.

`COC(OC)c1cccc2c1C1(O)CCC3(CC21)OCCCCO3` (stereo not drawn): the GI50 was inactive: > 100 µM.

For `C=C1C(=O)O[C@H]2C[C@@]3(C)[C@H](O)CCC(=C)[C@@H]3[C@@H](OC(C)=O)[C@H]12`, the GI50 was inactive: 17.5 µM.

`NC(C(=O)O)C(N)C(=O)O` (stereo not drawn): the GI50 was inactive: > 100 µM.

For the compound `N=C(N)NS(=O)(=O)c1ccc(NCc2c3ccccc3nc3ccccc23)cc1`, the GI50 was inactive: 58.1 µM.

For the compound `N#Cc1ccc(C(O)C(F)(F)c2nc3ccccc3o2)cc1` (stereo not drawn), the GI50 was inactive: > 100 µM.

In the case of `CC(C)/C(Cl)=N\OC(=O)NNc1ccccc1`, the GI50 was inactive: 98.4 µM.

For `COC1(OC)CC2CCCCC2=C(C)N1S(=O)(=O)c1ccccc1` (stereo not drawn), the GI50 is inactive: > 100 µM.

On to `COc1ccc(C(Nc2ncccn2)c2cc3c(cc2O)OCO3)cc1` (stereo not drawn), for which the GI50 is inactive: 24.8 µM.

Turning to `CSCSCC(CO)NC(=O)/C(C)=C\c1c(C)[nH]c(=O)[nH]c1=O` (stereo not drawn), the GI50 was inactive: > 250 µM.

On to `Cc1c(O)c(OC2OC(CO)C(O)C(O)C2O)cc2c1C=C[C@@H]1[C@@]2(C)C(=O)C[C@]2(C)[C@@H]([C@@](C)(O)C(=O)CCC(C)(C)O)[C@H](O)C[C@@]12C` (stereo partly drawn), for which the GI50 is inactive: 25.4 µM.

On to `O=C(CN(c1ccc(S(=O)(=O)O)cc1)c1ccc(S(=O)(=O)O)cc1)Nn1cnc2ccc(S(=O)(=O)N(c3ccc(S(=O)(=O)O)cc3)c3ccc(S(=O)(=O)O)cc3)cc2c1=O`, for which the GI50 was inactive: > 100 µM.

For the compound `NNC(=O)CC(=O)Nc1ccc(C(=O)O)cc1`, the GI50 was inactive: > 100 µM.

On to `O=[N+]([O-])C(=C(N1CCCCC1)N1CCCCC1)/C(Cl)=C(\Cl)Br`, for which the GI50 was inactive: 24.9 µM.

Regarding `N#CC(=S)Nc1cccc(Cl)c1`, the GI50 was inactive: 37.5 µM.

With `O=C(N/N=C(COc1ccc(Cl)cc1)\N=C\c1cccnc1)c1ccncc1`, the GI50 is inactive: > 100 µM.

Take `CCN(CC)CCOc1ccc(C(=C2CCCCC2)c2ccc(OCCN(CC)CC)cc2)cc1`: the GI50 was inactive: 1.5 µM.

On to `NC(=O)c1cc2ccccc2c(/N=N/c2ccccc2)c1O`, for which the GI50 was inactive: > 100 µM.

Consider `O=C(O)c1c(-c2ccccc2)c(=O)[nH]c2ccccc12`, for which the GI50 is inactive: > 100 µM.

In the case of `COC(=O)C1Cc2ccc(C)cc2C1=O` (stereo not drawn), the GI50 was inactive: > 100 µM.

Turning to `CC1=NN(C(=O)CC(=O)Nc2ccccc2Cl)C(=O)C1/N=N/c1ccc(C(=O)O)cc1` (stereo not drawn), the GI50 was inactive: > 100 µM.

As for `COC(=O)C(C(=O)C(=O)Nc1cccc([N+](=O)[O-])c1)c1nc2ccc([N+](=O)[O-])cc2nc1O` (stereo not drawn), the GI50 was inactive: > 100 µM.

For the compound `O=C1c2ccccc2C(=O)c2[nH]c(Cc3ccc(F)cc3)nc21`, the GI50 is inactive: 16 µM.

As for `O=C(Nc1ccc(C(F)(F)F)cc1[N+](=O)[O-])C(=O)C1NC(=S)NC1=O` (stereo not drawn), the GI50 is inactive: > 100 µM.

As to `NC1CC(=O)c2csc(Br)c21` (stereo not drawn), the GI50 was inactive: 39.6 µM.

Regarding `NS(=O)(=O)c1nnc(NC(=O)/C=C/C(=O)O)s1`, the GI50 is inactive: > 100 µM.

Turning to `Cc1c(/N=N/c2ccc(Cl)cc2)c(-c2ccccc2)n(C2OC(CO)C(O)C(O)C2O)c(=S)c1C#N` (stereo not drawn), the GI50 was inactive: 15.7 µM.

With `COc1ccc(N2C(=O)C3CC(c4ccc(Br)cc4)c4c([nH]c5ccccc45)C3C2=O)cc1` (stereo not drawn), the GI50 was inactive: 14.1 µM.

Turning to `CC1CC2C3CC(F)C4=CC(=O)C=CC4(C)C3(F)C(O)CC2(C)C1(O)C(=O)CO` (stereo not drawn), the GI50 is inactive: > 100 µM.

As to `CC1=CC[C@H](C)C(C)(C)C1/C=C/C(C)=C/CC[C@@]1(CO)[C@H](CCCO)/C(=C(/C)C=O)CC[C@]1(C)O` (stereo partly drawn), the GI50 is inactive: 15.1 µM.

On to `O=C(CCl)Nc1cc(Cl)c(Cl)cc1Cl`, for which the GI50 is inactive: 1.98 µM.

As to `COc1nc2nccc-2c2occn12`, the GI50 is inactive: > 100 µM.

Consider `CCCCCC(CN1CCOCC1)C(=O)/C=C/c1ccccc1` (stereo not drawn), for which the GI50 is inactive: 4.21 µM.

`CC1OC(n2cc(F)c(=O)[nH]c2=O)C=CC1O` (stereo not drawn): the GI50 was inactive: > 100 µM.

Turning to `CCC[C@H](O)[C@@H](CNc1cc(NC(C)=O)nc(NC(C)=O)n1)N(Cc1ccccc1)Cc1ccccc1`, the GI50 is inactive: 21.6 µM.

For the compound `O=c1c(-c2ccccc2F)coc2cc(F)ccc12`, the GI50 is inactive: > 100 µM.

Regarding `CC(C)(Cl)C(Br)CCC(Br)(CCl)C(Cl)CBr` (stereo not drawn), the GI50 was inactive: > 10 µM.

As for `CCSc1nc(COC(=O)NC)c(COC(=O)NC)n1C`, the GI50 is inactive: > 100 µM.

For `O=C1CCc2ccc(O)c(c2)Oc2ccc(cc2)[C@@H]2O[C@@H]2CO1`, the GI50 is inactive: 71.4 µM.
